Source: PubChem BioAssay AID686978 (National Center for Advancing Translational Sciences (NCATS), 2013)
The campaign covered roughly 420,000 compounds. About 64,000 (15%) were called active. The inconclusive results got no clear call from the source; some entries with a clear call stand among them for comparison. Calls follow the shape of the dose curve; as a rule, active = well fitted inhibition curve with a large enough effect; inconclusive = small, poorly fitted or top-dose-only effect; inactive = flat fitted curve, though single readings scatter. Potencies of inconclusive entries are left out as doubtful fits.

Assay: qHTS for Inhibitors of human tyrosyl-DNA phosphodiesterase 1 (TDP1): qHTS in cells in absence of CPT; also: nearly all actives have a fitted effect of over 55% in size
Settings: DT40 Tdp1-/- hTDP1 cells, no CPT, ATP luminescence, 48 h; activity change, negative = growth inhibition: at 46.2 µM (top of the series) unless noted
Outline: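 Seeded 400 DT40-hTDP1 cells/well (vehicle DMSO, no 20 nM CPT); pinned compounds; ≥48 hr at 37 °C; CellTiter-Glo luminescence as viability measure.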
% is scaled to controls: 0 for no effect and ±100 for the full control effect; potency is read from the fitted curve at half-maximal effect; tags tell the direction and shape of the fitted curve.

SMILES | Potency | activity change, negative = growth inhibition
COc1ccc(/C=N/NC(=O)c2ccc(OC)c(OC)c2)cc1COc1c(F)c(F)c(F)c(F)c1F | inconclusive [inhibitor, single point] | 
C[C@@H](Nc1nc(-c2ccccc2)nc2c1oc1ccccc12)C(=O)O | inconclusive [inhibitor, partial curve] | 
CCC(C(=O)Nc1ccc(C(=O)OC)cc1)n1nc(-c2ccc(C)c(C)c2)ccc1=O (stereo not given) | inconclusive [inhibitor, single point] | 
CC1Cc2ccccc2N1C(=O)CSc1nnc(NC(=O)Cc2cccs2)s1 (stereo not given) | inconclusive [inhibitor, full curve, poor fit] | 
Cc1c(C(=O)OC2CCCCCC2)[nH]c2c1C(=O)CC(c1ccc(N(C)C)cc1)C2 (stereo not given) | inconclusive [inhibitor, partial curve] | 
Cc1ccc([N+](=O)[O-])cc1N=Nc1c(C)[nH]n(C(N)=S)c1=O | inactive | 
COc1ccc(C2/C=C\CN(C(=O)c3ccccc3)[C@H](Cc3ccccc3)C(=O)N2Cc2ccc(F)cc2)cc1 (stereo not given in full) | active: 14.6 µM | 
COc1ccc(F)cc1S(=O)(=O)n1nnc2ccccc21 | inconclusive [inhibitor, full curve, poor fit] | 
CCOc1ccc(CNC(=O)Cn2ccc3cc(S(=O)(=O)N4CCCCC4)ccc32)cc1 | inconclusive [inhibitor, single point] | 
COc1ccc(S(=O)(=O)N(CC(=O)NCCSCc2ccccc2)c2ccc(C)cc2)cc1 | inconclusive [inhibitor, partial curve, poor fit] | 
CC1CCCN(S(=O)(=O)c2ccc(NC(=O)C3CC(=O)N(C(C)(C)C)C3)cc2)C1 (stereo not given) | inconclusive [inhibitor, single point] | 
CS(=O)(=O)N1CCCCC1c1cc(C(=O)NCc2ccc(F)cc2)no1 (stereo not given) | inactive | 
c1cncc(-c2csc(NCc3ccco3)n2)c1 | inactive | 
Cn1c(=O)c(=O)n(C)c2cc(S(=O)(=O)N3CCCC3C(=O)Nc3ccc(F)cc3)ccc21 (stereo not given) | inactive | 
O=C(CCCOc1ccccc1)NC1CCCc2ccccc21 (stereo not given) | inconclusive [inhibitor, single point] | 
O=C(CSc1ccccc1Cl)c1ccco1 | active: 8.2 µM | 
CC1(OC(=O)C2CCCC2)C(=O)C=C2C=C(c3ccsc3)N(Cc3ccccc3)C=C2C1=O (stereo not given) | active: 18.4 µM | 
Cc1ccc(NC(=O)CSc2nnc(CSc3nc(C)cc(C)n3)n2Cc2ccco2)c(C)c1 | inconclusive [inhibitor, single point] | 
O=C(c1ccccc1Br)N1CCC(c2nc3ccccc3o2)CC1 | inconclusive [inhibitor, single point] | 
CCOc1ccc(CNc2nnnn2C)cc1 | inactive | 
Cc1cc(NC(=O)COC(=O)C(C)Oc2ccc(Cl)cc2Cl)no1 (stereo not given) | inactive | 
O=C(CCCOc1ccccc1)Nc1cccc(S(=O)(=O)N2CCOCC2)c1 | inconclusive [inhibitor, single point] | 
COc1cccc(N(C(=O)C2CSC(=O)C2)C(C(=O)NC(C)(C)C)c2ccncc2)c1 (stereo not given) | inconclusive [inhibitor, single point] | 
CCn1c(SCc2nc3ccccc3c(=O)[nH]2)nc2ccccc21 | active: 20.6 µM | 

SMILES | Potency | activity change, negative = growth inhibition
Cc1ccc(S(=O)(=O)NCc2ccc(C(=O)NCCc3cccc(C)c3)cc2)cc1 | inconclusive [inhibitor, partial curve] | 
COc1ccc(S(=O)(=O)N(Cc2nc(-c3ccc(Cl)cc3)no2)C2CCCCC2)cc1 | active: 20.6 µM | 
Cc1ccc(S(=O)(=O)/C=C/C#N)cc1 | active: 0.651 µM | 
O=C(NC(c1ccc(-c2ccccc2)cc1)c1cnccn1)C1CCN(Cc2ccc3c(c2)OCO3)CC1 (stereo not given) | active: 5.17 µM | 
CS(=O)(=O)c1ccc(-c2sc3ccccc3c2C#CCCO)cc1 | inconclusive [inhibitor, single point] | 
Cc1oc(C)c2c(=O)cc(-c3ccc4c(c3)OCO4)cc(OC(=O)c3cccc(Cl)c3)c12 | inconclusive [inhibitor, single point] | 
Cc1cccc(NC(=O)c2cc(Cl)nc3ccccc23)n1 | inconclusive [inhibitor, single point] | 
C=C1C(=O)OC2CC1C(OC(C)=O)CC(C)=CCCC(C)=CCC[C@@]2(C)O (stereo not given in full) | active: 3.26 µM | 
CCc1nc2ccc(C(=O)N3CCN(C(=O)c4ccco4)CC3)cn2c1N(C)C(=O)Nc1ccccc1OC | inactive | 
O=C1[C@@H]2Cc3c([nH]c4ccccc34)CN2C(=O)CN1CCCCCO | inactive | 
CCc1nc2ccc(C(=O)NCCc3ccco3)cc2nc1CC | inconclusive [inhibitor, single point] | 
CCN(c1ccccc1)c1ncnc2c1cnn2-c1ccccc1 | inconclusive [inhibitor, partial curve, poor fit] | 
O=S(=O)(c1ccc(-n2cnnn2)cc1)N1CCN(c2cccc(C(F)(F)F)c2)CC1 | inactive | 
O=C1c2ccccc2C(=O)N1CCSc1nc2ccccc2c(=O)n1CCCN1CCOCC1 | inactive | 
C=CCNC(=O)CSc1nc2ccccc2c(=O)n1CCc1ccc(OC)c(OC)c1 | inconclusive [inhibitor, partial curve] | 
O=C(NCC1COCCO1)c1cc(COc2ccc(F)cc2F)on1 (stereo not given) | inactive | 
COc1ccc(-c2cc(C(F)(F)F)n3ncc(C(=O)NCC4CCCO4)c3n2)cc1OC (stereo not given) |  | inconclusive: -37.7% [inhibitor]
Cc1ccc(C(=O)N2CCc3ccccc3C2)cc1S(=O)(=O)N1CCOCC1 | inconclusive [inhibitor, single point] | 
CC(C)NC(=O)N(C)C[C@H]1OCc2cnnn2CCCC(=O)N([C@H](C)CO)C[C@H]1C | inactive | 
C[C@H](NC(=O)c1nc[nH]c1C(=O)N1CCNCC1)C(=O)OC(C)(C)C | inactive | 
Cc1ccc(C)c(C(O)c2ncc(-c3ccc(C(F)(F)F)cc3)[nH]2)c1 (stereo not given) | inconclusive [inhibitor, single point] | 
CN1C(=O)C(C)(C)c2cc(S(=O)(=O)N3CCCC3C(=O)Nc3ccc(F)cc3)ccc21 (stereo not given) | inconclusive [inhibitor, single point] | 
COc1cc(Cl)c(C)cc1NC(=O)c1sc2nc(C)cc(C)c2c1N | inactive | 
CN1c2ccccc2C(C)(C)C12C=Nc1c(cc(N3CCOCC3)c3ccccc13)O2 (stereo not given) | inconclusive [inhibitor, single point] | 

SMILES | Potency | activity change, negative = growth inhibition
CCOC(=O)C1=CCN(S(=O)(=O)c2ccccc2C)C1c1ccc(Cl)cc1 (stereo not given) | active: 14.6 µM | 
COc1ccc(CN(C)C(c2ccccc2)c2nnnn2-c2ccccc2C)c(OC)c1C (stereo not given) | inconclusive [inhibitor, single point] | 
COc1ccccc1NC(=O)C(Cc1ccccc1)NS(=O)(=O)c1cccc2nsnc12 (stereo not given) | inconclusive [inhibitor, single point] | 
N=c1c2c(-c3ccccc3)c(-c3ccccc3)oc2ncn1CCCN1CCOCC1 | active: 18.4 µM | 
CS(=O)(=O)c1ccccc1C(=O)NC1CCCc2ccccc21 (stereo not given) | inactive | 
CCC(=O)OCC(=O)c1cc(C)n(-c2ccc(Br)cc2)c1C | inconclusive [inhibitor, single point] | 
CCCCNC(=O)C1(C)CCCCN1C(=O)c1cc(C)n(C(C)(C)C)n1 (stereo not given) | inconclusive [inhibitor, single point] | 
O=C(Nc1ccc(C(=O)N2CCCC2)cc1)c1ccc2c(c1)OCO2 |  | inconclusive: -33.7% [inhibitor]
NCCCC[C@H]1CN=C(N)N1CCCCC1CCCCC1 | inconclusive [inhibitor, partial curve] | 
COc1ccc([C@H]2CC(=O)C=C(/C=C/c3ccc(C(F)(F)F)cc3)C2)cc1 | inconclusive [inhibitor, single point] | 
COc1ccc(OC)c(NC(=O)CSc2nc3ccccc3c(=O)n2CCC(=O)NC2CCCCC2)c1 | inactive | 
O=C(O)C1=CC[C@@H](c2ccc(Cl)cc2)N(S(=O)(=O)c2ccc(Cl)cc2)[C@H]1c1cccc(Cl)c1 | inactive | 
COc1cccc(-c2nc3n(n2)C(c2cccs2)C(C(=O)Nc2cccnc2)=C(C)N3)c1 (stereo not given) | inconclusive [inhibitor, single point] | 
CC(C)(C)NC(=O)CSC(=Nc1cccc(F)c1)NC#N | inconclusive [inhibitor, single point] | 
Cc1cnc(C(=O)NCC(c2ccccc2)c2ccccc2)cn1 | inconclusive [inhibitor, partial curve] | 
CC(C)N(C(=S)Nc1cccc(C(F)(F)F)c1)C(C)c1ccccn1 (stereo not given) | inconclusive [inhibitor, single point] | 
COc1ccc(/C=C/C(=O)O)cc1S(=O)(=O)NC1CCS(=O)(=O)C1 (stereo not given) | inactive | 
CCc1nnc(NS(=O)(=O)c2ccc(NC(=O)c3ccccc3O)cc2)s1 | inactive | 
CCCCOC(=O)c1cccc(NC(=O)/C=C/c2ccccc2Cl)c1 | active: 20.6 µM | 
CC(C)(C)n1nc2c(c1NC(=O)c1ccc(S(=O)(=O)N3CCCC3)cc1)CSC2 |  | inconclusive: -33.8% [inhibitor]
O=C(Cn1cc2c(n1)CCCC2)NCCCN1CCN(Cc2ccccc2)CC1 | inactive | 
COc1ccc(-c2cc3nc(C)c(CCC(=O)N4CCN(c5ccccn5)CC4)c(C)n3n2)c(OC)c1 | active: 16.4 µM | 
